Hit rate of the full screen: of about 410,000 compounds, about 7,200 (1.8%) were called active. The inconclusive results got no clear call from the source; some entries with a clear call stand among them for comparison. Calls come from the whole dose curve; as a rule, active = well fitted activation curve with a large enough effect; inconclusive = small, poorly fitted or top-dose-only effect, or another doubt; inactive = no such curve, though single readings can be large or run the other way. Potencies of inconclusive entries are left out as doubtful fits.
Test: qHTS of TDP-43 Inhibitors; note: nearly all actives have a fitted effect of over 50% in size; for growth rescue (activation): % of control where 0% means no effect
Settings: TDP-43 expressing yeast growth rescue, BacTiter-Glo, 24 h; growth rescue (activation): at 46.1 µM (top of the series) unless noted
Outline: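 Yeast cells expressing TDP-43 under galactose induction are exposed to compounds for 24 hr at 30 deg C. BacTiter-Glo luminescence measures growth, so protective compounds score as activators.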
Potency is the fitted concentration of half-maximal effect; tags give direction and shape of the fitted curve.

Row | SMILES | Potency | growth rescue (activation)
1 | Cc1ccc(C)c(OCc2cc(C(=O)N3CCN(c4ccccc4)CC3)no2)c1 | inconclusive [activator, partial curve] | –
2 | COc1ccc(C2=NOC(COc3ccc4c(C)cc(=O)oc4c3)C2)c(OC)c1 (configuration not stated) | inconclusive [activator, partial curve] | –
3 | CC(C)c1ccc(N2C(=O)N(Cc3ccccc3Cl)c3ccccc3S2(=O)=O)cc1 | inactive | –
4 | COc1ccc(-c2nc3ccc(Cl)cn3c2Cc2ccsc2)cc1OC | inconclusive [activator, partial curve] | –
5 | S=C(NCCC1=CCCCC1)Nc1ccccc1 | inconclusive [activator, partial curve] | –
6 | CCN(Cc1ccccc1)S(=O)(=O)c1ccc(F)c(C(=O)Nc2cc(C(F)(F)F)ccc2Cl)c1 | inactive | –
7 | CCNc1nc(NC(C)(C)C)nc(SC(C(C)=O)C(C)=O)n1 | inconclusive [activator, partial curve] | –
8 | COCCNc1nc2cc(-c3ccccc3)sc2c(=O)n1C | active: 20 µM | –
9 | CC(=O)Nc1ccc(S(=O)(=O)N(C)S(=O)(=O)c2ccc(F)cc2)cc1 | inconclusive [activator, single point] | –
10 | CCOc1ccc(OCC)c(Nc2cc(C)nc3ncnn23)c1 | inconclusive [activator, partial curve] | –
11 | O=C(NN/C(=N/S(=O)(=O)c1ccc(Cl)cc1)c1ccccc1)c1cccc(Cl)c1 | inconclusive [activator, partial curve] | –
12 | N/C(=N\OC(=O)C1CCCCC1)c1ccc(Cl)cc1 | – | inconclusive: -46.9% [activator]
13 | O=C(c1ccc2c(c1)OCO2)N(Cc1cccs1)C1(C(=O)NC2CCCCC2)CCCCC1 | inconclusive [activator, single point] | –
14 | Cc1cc(Br)cc2c(C(=O)OCC(=O)c3ccccc3)cc(-c3ccccc3)nc12 | inactive | –
15 | Cc1[nH]n(-c2ccccc2)c(=O)c1/C=N/Nc1nncc(-c2ccccc2)n1 | inconclusive [activator, single point] | –
16 | C#CCSc1nnc(-c2ccc(C)cc2)o1 | inconclusive [activator, partial curve] | –
17 | COc1nc(NCc2ccc(Cl)cc2)nc(OC)n1 | inconclusive [activator, partial curve, poor fit] | –
18 | COc1cccc(OCC(O)CNC(=O)c2oc3c(C)c(C)ccc3c2C)c1 (configuration not stated) | inconclusive [activator, partial curve] | –
19 | CC(C)(C)[C@H]1CCC(=O)N([C@H](CN=[N+]=[N-])Cc2ccccc2)CC1 | inconclusive [activator, single point] | –
20 | CC(C)OCCCn1c(SC(C)C(=O)NCC2CCCO2)nc2cc(Cl)ccc2c1=O (configuration not stated) | inconclusive [activator, partial curve] | –
21 | O=C(COc1ccc(Cl)cc1)NCC(c1ccco1)S(=O)(=O)c1ccc(Cl)cc1 (configuration not stated) | active: 35.5 µM | –

Row | SMILES | Potency | growth rescue (activation)
22 | Cn1ccnc1C(=O)c1cc(SCC(=O)NCc2ccccc2)nc2ccccc12 | inconclusive [activator, partial curve] | –
23 | Cn1c(=O)c2c(nc(NCc3ccc4c(c3)OCO4)n2Cc2ccc(F)cc2)n(C)c1=O | inconclusive [activator, single point] | –
24 | O=C(Cn1c(=O)oc2ccccc21)c1ccccc1 | inconclusive [activator, partial curve, poor fit] | –
25 | COc1ccccc1N1CCN(C(=O)COc2cc(C)cc(C)c2)CC1 | inconclusive [activator, single point] | –
26 | Cn1nc(C(F)(F)F)c(C(=O)Nc2ccc(Cl)cc2)c1Cl | inconclusive [activator, full curve, poor fit] | –
27 | Cc1cc(C)c(NC(=O)/C=C\C(=O)O)c(Cl)c1 | active: 12.6 µM | –
28 | O=C(CCc1ccccc1)NC(c1cccs1)c1cc(Cl)c2cccnc2c1O (configuration not stated) | inconclusive [activator, single point] | –
29 | COc1ccc(-c2csc(-c3cccs3)n2)cc1OC | active: 11.2 µM | –
30 | CCCNC(=O)COC(=O)c1ccc(-c2ccccc2)cc1 | inconclusive [activator, single point] | –
31 | O=c1c(-c2ccccc2)c(O)c2cccc3c2n1CCC3 | inconclusive [activator, single point] | –
32 | COc1ccc(Cn2c(CO)cnc2SCc2cccc(C)c2)cc1 | inconclusive [activator, partial curve] | –
33 | CCC(C)N(C(=O)CSc1nnc(COc2ccccc2F)n1N)C1CCS(=O)(=O)C1 (configuration not stated) | inactive | –
34 | Cc1cc(C)c(NC(=O)CNC(=O)COC(=O)Cc2cccs2)c(C)c1 | active: 11.2 µM | –
35 | CC1CN(C(=S)SCC(=O)c2ccc(Cl)cc2)CC(C)O1 (configuration not stated) | inconclusive [activator, full curve, poor fit] | –
36 | O=C(Nc1nc(COc2ccccc2)cs1)c1ccccc1F | inactive | –
37 | Cc1ccc(C(=O)n2nc(C)c(S(=O)(=O)N3CCOCC3)c2C)cc1C | inconclusive [activator, partial curve] | –
38 | COC(=O)N1C2CCCCC2=NN(c2ccccc2)N1C(=O)OC (configuration not stated) | inconclusive [activator, single point] | –
39 | Cc1ccc(NC(=S)NNC(=O)c2ccc(N3CCOCC3)c([N+](=O)[O-])c2)cc1Cl | inconclusive [activator, full curve, poor fit] | –
40 | COc1ccc(N2CCN(C(=O)c3c(-c4ccccc4)noc3C)CC2)cc1 | inconclusive [activator, partial curve] | –
41 | Cn1ccc2c(-c3ccc(C(N)=O)cc3)cc3c(c21)C1CCC3O1 (configuration not stated) | inconclusive [activator, partial curve] | –
42 | Cc1ccc(CNc2ccc(N3C(=O)CC(C)C3=O)cc2[N+](=O)[O-])cc1 (configuration not stated) | inconclusive [activator, single point] | –

Reference: PubChem BioAssay AID652104 (National Center for Advancing Translational Sciences (NCATS), 2013)
